In all, about 350,000 compounds went through this assay and about 31,000 (8.9%) were called active. Inconclusive means that the source gave no clear call. Such entries were picked first, then a sample of the others. Calls come from the whole dose curve; as a rule, active = well fitted inhibition curve with a large enough effect; inconclusive = small, poorly fitted or top-dose-only effect; inactive = no such curve, though single readings can be large or run the other way. A potency beside an inconclusive call is a rough fit, not a confirmed value.
Target: Histone-lysine N-methyltransferase EHMT2 (Homo sapiens) (UniProt Q96KQ7)
Experiment: qHTS Assay for Inhibitors of Histone Lysine Methyltransferase G9a; note: nearly all actives have a fitted effect of over 75% in size
Conditions: G9a H3K9 monomethylation, AlphaScreen, 2 h; activity, negative = inhibition: at 59 µM (top of the series) unless noted
How it was run: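 Signal arises when biotinylated H3K9 peptide, once monomethylated, bridges streptavidin donor and antibody-captured acceptor beads. Enzyme at 20 nM was preincubated 15 min with test compounds; peptide 500 nM and SAM 20 uM then reacted for 2 h.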
% is set by controls: 0 for no effect and ±100 for the full control effect; potency is the fitted concentration of half-maximal effect; tags give direction and shape of the fitted curve.

Chain of UniProt Q96KQ7 (Q96KQ7 whole entry, looked up): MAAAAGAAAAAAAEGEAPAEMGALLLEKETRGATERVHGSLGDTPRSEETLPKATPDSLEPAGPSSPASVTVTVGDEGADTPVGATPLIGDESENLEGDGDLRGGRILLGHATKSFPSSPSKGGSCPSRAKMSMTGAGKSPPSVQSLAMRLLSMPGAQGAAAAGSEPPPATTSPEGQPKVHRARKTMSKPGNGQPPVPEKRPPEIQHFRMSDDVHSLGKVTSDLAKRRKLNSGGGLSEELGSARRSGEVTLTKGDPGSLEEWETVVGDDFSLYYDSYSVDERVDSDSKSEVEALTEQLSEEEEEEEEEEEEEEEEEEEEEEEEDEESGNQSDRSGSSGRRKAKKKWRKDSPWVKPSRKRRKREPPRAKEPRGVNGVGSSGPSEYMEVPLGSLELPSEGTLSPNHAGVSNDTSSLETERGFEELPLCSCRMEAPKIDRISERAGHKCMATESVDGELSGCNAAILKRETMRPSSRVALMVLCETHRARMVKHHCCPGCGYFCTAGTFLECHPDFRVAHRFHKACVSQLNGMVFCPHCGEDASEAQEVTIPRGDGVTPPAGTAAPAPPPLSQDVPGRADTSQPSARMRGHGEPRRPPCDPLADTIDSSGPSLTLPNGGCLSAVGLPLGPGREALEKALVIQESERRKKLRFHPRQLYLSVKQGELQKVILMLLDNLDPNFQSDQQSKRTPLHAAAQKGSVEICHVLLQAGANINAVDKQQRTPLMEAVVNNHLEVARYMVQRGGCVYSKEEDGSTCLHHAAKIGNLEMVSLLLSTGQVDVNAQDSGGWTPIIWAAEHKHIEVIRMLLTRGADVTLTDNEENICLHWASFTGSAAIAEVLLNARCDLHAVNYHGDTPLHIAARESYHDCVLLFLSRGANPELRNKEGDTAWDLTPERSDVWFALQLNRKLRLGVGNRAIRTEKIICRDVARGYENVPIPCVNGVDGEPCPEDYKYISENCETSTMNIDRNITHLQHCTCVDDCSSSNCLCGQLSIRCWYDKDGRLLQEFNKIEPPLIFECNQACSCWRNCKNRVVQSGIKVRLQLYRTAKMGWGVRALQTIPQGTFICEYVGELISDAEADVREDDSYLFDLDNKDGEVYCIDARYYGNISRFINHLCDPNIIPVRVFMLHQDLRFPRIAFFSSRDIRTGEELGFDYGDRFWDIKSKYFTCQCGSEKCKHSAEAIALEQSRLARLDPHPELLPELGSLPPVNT

| Structure (SMILES) | Potency | activity, negative = inhibition |
| --- | --- | --- |
| O=C(O)c1ccc2c(c1)C(=O)N(c1ccc(Nc3ccccc3)cc1)C2=O | inconclusive: 89.1 µM [inhibitor, single point] | – |
| CC(=O)Nc1ccc(/C=C2\Sc3ccccc3C2=O)cc1 | inactive | – |
| Cc1noc(/C=C/c2cccs2)c1S(=O)(=O)N1CCC(C(=O)NCc2ccccc2Cl)CC1 | inactive | – |
| O=C(O)CSc1nnc(COc2ccc([N+](=O)[O-])cc2)n1-c1ccccc1 | inactive | – |
| CCN(Cc1ccccc1)Cc1c(O)ccc2c(=O)c(-c3ccc(Cl)cc3Cl)coc12 | inactive | – |
| COc1ccc2c(c1)c(C(=O)CN1CCc3ccccc3C1)c(C)n2C | active: 44.7 µM | – |
| CCNC(=O)C(Cc1ccccc1)NC(=O)OCc1ccccc1 (centres undefined) | inconclusive: 89.1 µM [inhibitor, partial curve, poor fit] | – |
| COc1cc(OC)cc(C(=O)N2CCN(Cc3ccccc3C(F)(F)F)CC2)c1 | active: 7.94 µM | – |
| COc1ccc(CC(=O)Nc2nc3ccc(F)cc3s2)cc1S(=O)(=O)N1CCOCC1 | – | inconclusive: -78.6% [inhibitor] |
| CCc1ccc(-c2nc(CS(=O)CC(=O)NCc3ccc4c(c3)OCO4)c(C)o2)cc1 (centres undefined) | active: 39.8 µM | – |
| N#CC(C#N)=Cc1cccn1-c1ccc(S(N)(=O)=O)cc1 | inconclusive: 12.6 µM [inhibitor, partial curve, poor fit] | – |
| COC(=O)NNC(=O)C1CCC(C(=O)NNC(=O)OC)CC1 (centres undefined) | inactive | – |
| CC(C(=O)N1c2ccc(F)cc2CCC1C)N1C(=O)c2ccccc2C1=O (centres undefined) | inconclusive: 25.1 µM [inhibitor, partial curve, poor fit] | – |
| COCCCNC(=O)c1cc(OC)c(OC)c(OC)c1 | – | inactive: 31.1% [at 2.33 µM] |
| CCOC(=O)c1c(C)sc2c1N(C(=O)CN1CCOCC1)c1cc(Cl)ccc1S2 | inconclusive: 89.1 µM [inhibitor, single point] | – |
| CN(C)c1ccc(Sc2nnc(NC(=O)Nc3ccc(Cl)cc3Cl)s2)cc1 | active: 28.2 µM | – |
| CCOC(=O)N1CCC(NCCNC(=O)c2cccs2)CC1 | inconclusive: 3.16 µM [inhibitor, partial curve, poor fit] | – |
| O=[N+]([O-])c1ccccc1OCCCN1CCc2ccccc2C1 | inconclusive: 89.1 µM [inhibitor, single point] | – |
| COc1cc(/C=C(\C#N)c2nc3ccccc3[nH]2)ccc1OCc1cccc(C(F)(F)F)c1 | inactive | – |
| Cc1ccc(C(=O)/C=C/Nc2ccc(S(=O)(=O)Nc3onc(C)c3C)cc2)cc1 | inconclusive: 0.794 µM [inhibitor, full curve, poor fit] | – |
| Cc1cc(=O)[nH]c(SCC(=O)Nc2cccc3ccccc23)c1C#N | inconclusive: 1.78 µM [inhibitor, partial curve, poor fit] | – |
| O=C(CSc1nc2ccc(Cl)cc2[nH]1)Nc1ccc2c(c1)CCC2 | inactive | – |
| COc1ccccc1N1CCN(CC(=O)c2ccc3ccn(C(C)=O)c3c2)CC1 | active: 11.2 µM | – |
| CC1=NNC(=O)C1C(c1ccccc1)C1C(=O)NN=C1C (centres undefined) | inconclusive: 56.2 µM [inhibitor, single point] | – |
| CCCCNC(=O)CCCn1c(=O)c2ccccc2n(CC(=O)Nc2ccccc2OCC)c1=O | inactive | – |

| Structure (SMILES) | Potency | activity, negative = inhibition |
| --- | --- | --- |
| Cc1cccc(N=C2NC(=O)/C(=C/C=C/c3ccco3)S2)c1 | active: 14.1 µM | – |
| COc1ccc(CN2CCC(C)CC2)cc1OCc1ccccc1 | inactive | – |
| O=S(=O)(c1ccc(Br)s1)N1CCN(CCOc2ccccc2)CC1 | inconclusive: 2.82 µM [inhibitor, partial curve, poor fit] | – |
| CC(C)S(=O)(=O)c1csc(C(=O)NN)c1Cl | active: 44.7 µM | – |
| O=C(c1cc(-c2ccco2)on1)N1CCCc2ccccc21 | active: 12.6 µM | – |
| Cc1cccc(C)c1-n1cccc1/C=C1/C(=N)N2C(=NC1=O)SN=C2S(C)(=O)=O | active: 31.6 µM | – |
| COc1ccc(N2CCN(CC(O)COc3ccc([N+](=O)[O-])cc3)CC2)cc1 (centres undefined) | inconclusive: 22.4 µM [inhibitor, single point] | – |
| CN(Cc1ccccc1)C(=S)NC(=O)c1cccs1 | active: 39.8 µM | – |
| CN(CC(=O)Nc1ccccc1Cl)C(=O)COC(=O)/C=C/c1ccc(C(F)(F)F)cc1 | – | inactive: 48.3% [at 12.7 µM] |
| Cc1c(-n2c(O)c(C3=c4ccccc4=NC3=O)sc2=O)c(=O)n(-c2ccccc2)n1C | inconclusive: 79.4 µM [inhibitor, partial curve, poor fit] | – |
| CCOc1ccc(C(=O)c2cc([N+](=O)[O-])ccc2Cl)cc1 | inconclusive: 44.7 µM [inhibitor, partial curve, poor fit] | – |
| Cc1ccnc2nc(C(=O)Nc3nccs3)nn12 | inconclusive: 3.16 µM [inhibitor, single point] | – |
| NC(=O)CSc1nc2ccccc2c(=O)n1CCc1ccccc1 | active: 79.4 µM | – |
| CCc1nc2cccnc2n1-c1ccc(CC(=O)Nc2cccc(C)c2C)cc1 | inconclusive: 3.98 µM [inhibitor, single point] | – |
| Cc1cc(C)c(S(=O)(=O)Nc2nnc(C3CCCCC3)s2)c(C)c1 | active: 70.8 µM | – |
| Cc1noc(C)c1CSCC(=O)Nc1ccc(S(C)(=O)=O)cc1 | inconclusive: 8.91 µM [inhibitor, single point] | – |
| O=C(Cn1c(=O)n(-c2ccc(Cl)cc2)c(=O)c2sc3ccccc3c21)NC1CCCC1 | inactive | – |
| COc1cccc(-c2csc(N3CCN(C(=S)Nc4ccccc4OC)CC3)n2)c1 | inconclusive: 17.8 µM [inhibitor, single point] | – |
| CCOC(=O)N1CCN(S(=O)(=O)c2c[nH]c(C(=O)OC)c2)CC1 | inactive | – |
| COc1ccc(C(=S)N2CCN(c3ccccc3Cl)CC2)cc1OC | active: 7.08 µM | – |
| COc1ccccc1NC(=O)c1nc[nH]c1C(=O)Nc1ccccc1OC | active: 11.2 µM | – |
| CCSc1ccccc1C(=O)Nc1ccc(-c2nc3ccccc3s2)c(O)c1 | inactive | – |
| CCOCCCNS(=O)(=O)c1ccc(NC(=O)c2ccc(OC)c([N+](=O)[O-])c2)cc1 | inactive | – |
| CN(C)Cc1c(C#N)c2ccccc2n1C | inconclusive: 50.1 µM [inhibitor, partial curve] | – |
| C=CCN1C(c2ccccc2)=CS/C1=C(/C#N)c1nnc(N2CCOCC2)n1-c1ccccc1 | inconclusive: 39.8 µM [inhibitor, single point] | – |

| Structure (SMILES) | Potency | activity, negative = inhibition |
| --- | --- | --- |
| CCOC(=O)C1C(=O)CC(C)(O)C(C(=O)OCC)C1c1ccc(Br)o1 (centres undefined) | inconclusive: 11.2 µM [inhibitor, partial curve, poor fit] | – |
| Nc1ccc(C(=O)N/N=C\c2ccc(OC(=O)c3ccccc3Cl)cc2)cc1 | inactive | – |
| CC(=O)Nc1ccc(CN2CCc3c([nH]c4ccccc34)C2C(C)(C)C)cc1 (centres undefined) | inconclusive: 89.1 µM [inhibitor, single point] | – |
| CC(=O)c1nc(N2C(=O)CC(Cc3ccc(C)cc3)C2=O)sc1C (centres undefined) | active: 1.41 µM | – |
| Cc1cc(C)n(-c2ccc(C(=O)NC3=NCCS3)cc2)n1 | inconclusive: 39.8 µM [inhibitor, single point] | – |
| N=C(N)SCc1ccc(O)c([N+](=O)[O-])c1 | active: 31.6 µM | – |
| O=c1cc(O)c2sc(Nc3ccc(Cl)c(F)c3)nc2[nH]1 | – | inconclusive: -72.3% [inhibitor] |
| Cc1nnc(SCc2cc(=O)n3[nH]cnc3n2)s1 | inconclusive: 25.1 µM [inhibitor, single point] | – |
| COC(=O)c1c(C(=O)c2ccc(Br)cc2)n(C)c2ccccc12 | inconclusive: 4.47 µM [inhibitor, single point] | – |
| O=C(COC(=O)CCC(=O)c1cccs1)NC1CCCCC1 | inactive | – |
| CCOc1ccccc1CN1CCNC(=O)C1CC(=O)N(C)C1CCOCC1 (centres undefined) | inconclusive: 79.4 µM [inhibitor, single point] | – |
| Cc1cc(=O)n(CC(C)C)c(O)c1C#N | inconclusive: 3.16 µM [inhibitor, single point] | – |
| COc1ccc(/C=N/NC(=O)c2nc(-c3ccccc3)cc(-c3ccccc3)n2)cc1O | inconclusive: 5.62 µM [inhibitor, partial curve] | – |
| O=C(c1ccc(C(F)(F)F)cc1)C1CCCN(C(=O)Cn2cnnn2)C1 (centres undefined) | inactive | – |
| C[C@@H]1CN(C(=O)c2nc3ccc(Cl)cn3c2CN[C@H]2CCCCNC2=O)C[C@H](C)O1 | – | inconclusive: -74.4% [inhibitor] [at 0.501 µM] |
| O=[N+]([O-])c1cc(C(F)(F)F)ccc1Cl | – | inactive: -0.925% [at 0.501 µM] |
| CCOc1ccc(-c2cccc(NC(=O)c3ccc(Br)o3)c2)nn1 | inconclusive: 79.4 µM [inhibitor, single point] | – |
| CC1CC(C)CN(CCOc2ccccc2-c2ccccc2)C1 (centres undefined) | inconclusive: 35.5 µM [inhibitor, single point] | – |
| CCN(C(=O)COC(=O)CNC(=O)c1ccc(F)cc1)C1CCS(=O)(=O)C1 (centres undefined) | inconclusive: 70.8 µM [inhibitor, single point] | – |
| O=C(O)CSc1nc2ccccc2o1 | inconclusive: 89.1 µM [inhibitor, single point] | – |
| Cc1ccccc1CNC(=O)CN1C(=O)C2CCCCN2c2ccc(C(=O)N3CCCC3)cc21 (centres undefined) | inactive | – |
| CCC(=O)N(C)/C=C1\Sc2ccccc2C1=O | inconclusive: 50.1 µM [inhibitor, partial curve] | – |
| CCOC(=O)C1CCN(C(=O)CSc2nnc(-c3ccco3)n2-c2ccccc2)CC1 | active: 44.7 µM | – |
| Cc1cnc(C(=O)Nc2ccccc2F)cn1 | inconclusive: 6.31 µM [inhibitor, full curve, poor fit] | – |

From PubChem BioAssay AID504332 (National Center for Advancing Translational Sciences (NCATS), 2011)
